Measured values published in the supplement of paper PMC12217912.
This is one part of the list. Sequences were assembled here from the parent chain. Values near 0.05 are background.

B1: TEV protease; numbered along this chain (parent)
chain: MGESLFKGPRDYNPISSSICHLTNESDGHTTSLYGIGFGPFIITNKHLFRRNNGTLVVQSLHGVFKVKDTTTLQQHLVDGRDMIIIRMPKDFPPFPQKLKFREPQREERICLVTTNFQTKSMSSMVSDTSCTFPSGDGIFWKHWIQTKDGQCGSPLVSTRDGFIVGIHSASNFTNTNNYFTSVPKNFMELLTNQEAQQWVSGWRLNADSVLWGGHKVFMVKPEEPFQPVKEATQL

Variants of: B1
Experiment: raw area under fraction-flipped curve 0-4 h after induction (AUC4h, not background-subtracted), DNA-recorder readout of cleavage of the substrate (dimensionless); higher = more cleavage of the substrate by the protease variant
Conditions: temperature: 34 °C; time window: 0-4 h after rhamnose induction
Protocol: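 In vivo DNA recorder in E. coli TOP10(DE3) ΔrhaA at 34 °C. Each TEVp single-site mutant (parent TEVp 0) is paired with a single-site variant of the 7-mer TEVs (canonical ENLYFQ|S). The substrate sits between flexible linkers in a Bxb1-sfGFP-TEVs-SsrA fusion, so cleavage stabilises Bxb1 and speeds flipping of a recombination array, read by NGS. The value is the raw area under the fraction-flipped curve over 0-4 h after rhamnose induction (AUC4h), with ≥20 reads per time point. It is not background-subtracted; inactive controls average about 0.047.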
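Also: Bxb1 expression induced with 0.2% (w/v) L-rhamnose at OD600 near 0.5, cultures sampled hourly, flipped fraction per protease–substrate barcode pair counted by paired-end Illumina sequencing.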

Variant	area with substrate EALYFQS	area with substrate ECLYFQS	area with substrate EDLYFQS	area with substrate EELYFQS	area with substrate EGLYFQS	area with substrate EHLYFQS	area with substrate EILYFQS	area with substrate EKLYFQS	area with substrate ELLYFQS	area with substrate EQLYFQS	area with substrate ERLYFQS	area with substrate EWLYFQS	area with substrate EYLYFQS	area with substrate EMLYFQS	area with substrate EPLYFQS	area with substrate ESLYFQS	area with substrate ETLYFQS	area with substrate EVLYFQS
MGESLFKGPRDYNPISSSICHLTNESDGHTTSLYGIGFGPFIITNKHLFRRNNGTLVVQSLHGVFKVKDTTTLQQHLVDGRDMIIIRMPKDFPPFPQKLKFREPQREERICLVTTNFQTKSMSSMVSDTSCTFPSGDGIFWKHWIQTKDGQCGSPLVSTRDGFIVGIHSASNFTNTNNYFTSVPKNFMELLTNQEAQQWVSGWRLNADSVLWGGNKVFMVKPEEPFQPVKEATQL [H215N]	0.0498	0.0536	0.0793	0.0722	0.0677	0.0643	0.0638	0.0573	0.0552	0.0506	0.076	0.0644	0.0625					
MGESLFKGPRDYNPISSSICHLTNESDGHTTSLYGIGFGPFIITNKHLFRRNNGTLVVQSLHGVFKVKDTTTLQQHLVDGRDMIIIRMPKDFPPFPQKLKFREPQREERICLVTTNFQTKSMSSMVSDTSCTFPSGDGIFWKHWIQTKDGQCGSPLVSTRDGFIVGIHSASNFTNTNNYFTSVPKNFMELLTNQEAQQWVSGWRLNADSVLWGGMKVFMVKPEEPFQPVKEATQL [H215M]	0.0986	0.0874				0.103	0.0746		0.0958					0.107	0.124	0.0822	0.0608	0.0726
MGESLFKGPRDYNPISSSICHLTNESDGHTTSLYGIGFGPFIITNKHLFRRNNGTLVVQSLHGVFKVKDTTTLQQHLVDGRDMIIIRMPKDFPPFPQKLKFREPQREERICLVTTNFQTKSMSSMVSDTSCTFPSGDGIFWKHWIQTKDGQCGSPLVSTRDGFIVGIHSASNFTNTNNYFTSVPKNFMELLTNQEAQQWVSGWRLNADSVLWGGHKGFMVKPEEPFQPVKEATQL [V217G]	0.0687	0.061	0.0852			0.058	0.0617	0.0648			0.0757						0.0702	0.0592
MGESLFKGPRDYNPISSSICHLTNESDGHTTSLYGIGFGPFIITNKHLFRRNNGTLVVQSLHGVFKVKDTTTLQQHLVDGRDMIIIRMPKDFPPFPQKLKFREPQREERICLVTTNFQTKSMSSMVSDTSCTFPSGDGIFWKHWIQTKDGQCGSPLVSTRDGFIVGIHSASNFTNTNNYFTSVPKNFMELLTNQEAQQWVSGWRLKADSVLWGGHKVFMVKPEEPFQPVKEATQL [N206K]	0.087	0.0839	0.0984	0.136	0.0947		0.0849	0.0559		0.0763		0.104		0.0945			0.0992	
MGESLFKGPRDYNPISSSICHLTNESDGHTTSLYGIGFGPFIITNKHLFRRNNGTLVVQSLHGVFKVKDTTTLQQHLVDGRDMIIIRMPKDFPPFPQKLKFREPQREERICLVTTNFQTKSMSSMVSDTSCTFPSGDGIFWKHWIQTKDGQCGSPLVSTRDGFIVGIHSASNFTNTNNYFTSVPKNFMELLTNQEAQQWVSGWRLNAGSVLWGGHKVFMVKPEEPFQPVKEATQL [D208G]	0.0751	0.0588		0.0796	0.0734	0.0872	0.0467	0.109			0.0686			0.0804		0.085	0.081	
MGESLFKGPRDYNPISSSICHLTNESDGHTTSLYGIGFGPFIITNKHLFRRNNGTLVVQSLHGVFKVKDTTTLQQHLVDGRDMIIIRMPKDFPPFPQKLKFREPQREERICLVTTNFQTKSMSSMVSDTSCTFPSGDGIFWKHWIQTKDGQCGSPLVSTRDGFIVGIHSASNFTNTNNYFTSVPKNFMELLTNQEAQQWVSGWRLNADSVLWGGHKVFHVKPEEPFQPVKEATQL [M219H]	0.0976	0.102		0.125		0.0961	0.105	0.092	0.0884	0.0958	0.0905	0.0951		0.0799	0.111	0.094		0.0897
MGESLFKGPRDYNPISSSICHLTNESDGHTTSLYGIGFGPFIITNKHLFRRNNGTLVVQSLHGVFKVKDTTTLQQHLVDGRDMIIIRMPKDFPPFPQKLKFREPQREERICLVTTNFQTKSMSSMVSDTSCTFPSGDGIFWKHWIQTKDGQCGSPLVSTRDGFIVGIHSASNFTNTNNYFTSVPKNFMELLTNQEAQQWVSGWRLNADSVFWGGHKVFMVKPEEPFQPVKEATQL [L211F]	0.102	0.114		0.0966	0.0804		0.0788		0.0833	0.163	0.103	0.0905	0.12	0.109	0.0878	0.116		0.0835
MGESLFKGPRDYNPISSSICHLTNESDGHTTSLYGIGFGPFIITNKHLFRRNNGTLVVQSLHGVFKVKDTTTLQQHLVDGRDMIIIRMPKDFPPFPQKLKFREPQREERICLVTTNFQTKSMSSMVSDTSCTFPSGDGIFWKHWIQTKDGQCGSPLVSTRDGFIVGIHSASNFTNTNNYFTSVPKNFMELLTNQEAQQWVSGWRLNADSTLWGGHKVFMVKPEEPFQPVKEATQL [V210T]	0.0786	0.0708			0.065	0.0892	0.0599	0.0905		0.0769		0.0909			0.116	0.0839	0.116	0.0788
MGESLFKGPRDYNPISSSICHLTNESDGHTTSLYGIGFGPFIITNKHLFRRNNGTLVVQSLHGVFKVKDTTTLQQHLVDGRDMIIIRMPKDFPPFPQKLKFREPQREERICLVTTNFQTKSMSSMVSDTSCTFPSGDGIFWKHWIQTKDGQCGSPLVSTRDGFIVGIHSASNFTNTNNYFTSVPKNFMELLTNQEAQQWVSGWRLNADSFLWGGHKVFMVKPEEPFQPVKEATQL [V210F]	0.0971		0.0827	0.0976	0.0811	0.0873	0.0831	0.0999							0.118	0.0837		0.0899
MGESLFKGPRDYNPISSSICHLTNESDGHTTSLYGIGFGPFIITNKHLFRRNNGTLVVQSLHGVFKVKDTTTLQQHLVDGRDMIIIRMPKDFPPFPQKLKFREPQREERICLVTTNFQTKSMSSMVSDTSCTFPSGDGIFWKHWIQTKDGQCGSPLVSTRDGFIVGIHSASNFTNTNNYFTSVPKNFMELLTNQEAQQWVSGWRLNDDSVLWGGHKVFMVKPEEPFQPVKEATQL [A207D]	0.127	0.118			0.102	0.134	0.0951	0.0949		0.128	0.116	0.132		0.129	0.122	0.102		0.106
